Data published in patent publication US20080044423A1.
Residue numbers refer to the chain shown, from its start. Each block holds one binder with its values, some of them ahead of it.

Tests used:
Assay in all cases: cell-based or functional assay
[1] = molecular target: human IL-17A, untagged, E. coli derived (in house or Peprotech) (human) (UniProt Q16552)
[2] = molecular target: cynomolgus IL-17A (cynomolgus)
[3] = molecular target: human IL-17A derived from the HEK-EBNA expression system (human) (UniProt Q16552)

B1: Antibody 2 IgG1, non-germlined form (antibody, V domains shown)
VH: [not shown - about 100 residues]DLIWGVAGSWGQGTLVTVSS
VL: NFMLTQPHSVSESPGKTVTISCTRSSGSLANYYVQWYQQRPGSSPTIVIFANNQRPSGVPDRFSGSIDSSSNSASLTISGLKTEDEADYYCQSYDPHSVVFGGGTKLTVL
cartilage explant IL-6 (IL-17A 10 ng/ml + TNF 1 ng/ml), % inhibition at 50 nM antibody [1]: 91.6% | cartilage explant IL-6 (pg/ml), mean, IL-17A 10 ng/ml + TNF 1 ng/ml + antibody (55.00 pg/ml without antibody) [1]: 4.63 pg/mL | chondrocyte IL-6 release, geometric mean IC50 at 0.2 nM IL-17A [1]: 0.85 nM | chondrocyte IL-6 release, geometric mean IC50 at 2 nM IL-17A [1]: 5.76 nM | chondrocyte IL-8 release, geometric mean IC50 at 0.2 nM IL-17A [1]: 0.74 nM | chondrocyte IL-8 release, geometric mean IC50 at 2 nM IL-17A [1]: 3.81 nM | chondrocyte MMP13 release, geometric mean IC50 at 0.2 nM IL-17A [1]: 1.55 nM | chondrocyte MMP13 release, geometric mean IC50 at 2 nM IL-17A [1]: 11.5 nM | chondrocyte PGE2 release, geometric mean IC50 at 2 nM IL-17A [1]: 1.94 nM

B4: Antibody 11 IgG1 (antibody, V domains shown)
VH: [not shown - about 100 residues]DLIWGVAGSWGQGTMVTVSS
VL: B1 VL with S44A, G80R, D95S
HT1080 IL-6 release, IgG IC50 [2]: 25 nM | HT1080 IL-6 release, IgG IC50 [3]: 2.2 nM

Second part, the binder after the results:

Fold difference in cross-reactivity (IgG) [2]: 16 fold | HT1080 IL-6 release, IgG IC50 [2]: 29 nM | HT1080 IL-6 release, IgG IC50 [3]: 1.8 nM
B2: Antibody 14 IgG1 (antibody, V domains shown)
VH: [not shown - about 100 residues]DLIWGVAGSWGQGTLVTVSS
VL: B1 VL with S44A, G80R, H97T, S98N, V99Q

Fold difference in cross-reactivity (IgG) [2]: 19 fold | HT1080 IL-6 release, IgG IC50 [2]: 30.9 nM | HT1080 IL-6 release, IgG IC50 [3]: 1.7 nM
B3: Antibody 15 IgG1 (antibody, V domains shown)
VH: [not shown - about 100 residues]DLIWGVAGSWGQGTLVTVSS
VL: B1 VL with S44A, G80R, D95S, H97T
